Consider two substances from paper PMC3924327.

Protein sequences, listed by entry. Tags and fused reporters are not part of them. Lines headed by an entry give the natural chain unless they say otherwise; changes in a name come on top. Residues count along the entry.
cav-1_(2-31) peptide (Q03135, residues 2-31): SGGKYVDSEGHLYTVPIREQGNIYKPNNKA
cav-1_(19-40) peptide (Q03135, residues 19-40): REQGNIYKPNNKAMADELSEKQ
cav_(76-101) peptide (Q03135, residues 76-101): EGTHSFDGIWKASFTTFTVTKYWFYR
UniProt P04512: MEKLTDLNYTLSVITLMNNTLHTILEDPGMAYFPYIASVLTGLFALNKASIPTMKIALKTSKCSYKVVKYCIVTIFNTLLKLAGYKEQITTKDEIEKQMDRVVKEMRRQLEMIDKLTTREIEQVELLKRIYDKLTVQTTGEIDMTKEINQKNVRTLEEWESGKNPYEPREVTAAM

Results are given in words; binding and its absence hold for the method and conditions named. In cells and extracts the contact can be indirect. Some results given as binding are weak or reduced against the parent protein; the word gives no strength.

What all share (assay): pull-down; only the target purified
For experiment [1], the target named is cav-1_(2-31) peptide (UniProt Q03135).
Experiment [2] deals with cav-1_(161-178) peptide (UniProt Q03135).
Experiment [3] has as its target cav_(76-101) peptide (UniProt Q03135).
Experiment [4] concerns the target cav-1_(19-40) peptide (UniProt Q03135).

As to “NSP4_(46-175) expressed in yeast (from UniProt P04512 46-175) (domain or fragment)”, the binding result in experiment [1] and in experiment [2] was “binds” in each case.

In the case of “FLNSP4 (full-length NSP4) expressed in yeast (from UniProt P04512 1-175)”, the binding entry in experiment [1] is recorded as “binds”; in experiment [2] it was “binds”; in experiment [3], “no binding”; in experiment [4], “binds”.
